Laboratory results as given in PubChem BioAssay AID720709 (National Center for Advancing Translational Sciences (NCATS), 2013).
Out of some 360,000 compounds screened, about 520 (0.14%) were called active. Inconclusive means that the source gave no clear call. Such entries were picked first, then a sample of the others. The call rests on the fitted dose curve; in most records, active means well fitted inhibition curve with a large enough effect; inconclusive means small, poorly fitted or top-dose-only effect; inactive means no such curve, though single readings can be large or run the other way. Potencies beside an inconclusive call are fits to weak or partial responses and may not hold up.

These compounds were tested against Rap guanine nucleotide exchange factor 3 (Homo sapiens) (UniProt O95398) (assay: qHTS for Antagonist of cAMP-regulated guanine nucleotide exchange factor 3 (EPAC1): primary screen). Conditions: EPAC1 GEF assay, Rap1b-BODIPY-GDP exchange fluorescence; activity change, negative = inhibition: at 115 µM (top of the series).
UniProt O95398, sequence (O95398 whole entry, looked up): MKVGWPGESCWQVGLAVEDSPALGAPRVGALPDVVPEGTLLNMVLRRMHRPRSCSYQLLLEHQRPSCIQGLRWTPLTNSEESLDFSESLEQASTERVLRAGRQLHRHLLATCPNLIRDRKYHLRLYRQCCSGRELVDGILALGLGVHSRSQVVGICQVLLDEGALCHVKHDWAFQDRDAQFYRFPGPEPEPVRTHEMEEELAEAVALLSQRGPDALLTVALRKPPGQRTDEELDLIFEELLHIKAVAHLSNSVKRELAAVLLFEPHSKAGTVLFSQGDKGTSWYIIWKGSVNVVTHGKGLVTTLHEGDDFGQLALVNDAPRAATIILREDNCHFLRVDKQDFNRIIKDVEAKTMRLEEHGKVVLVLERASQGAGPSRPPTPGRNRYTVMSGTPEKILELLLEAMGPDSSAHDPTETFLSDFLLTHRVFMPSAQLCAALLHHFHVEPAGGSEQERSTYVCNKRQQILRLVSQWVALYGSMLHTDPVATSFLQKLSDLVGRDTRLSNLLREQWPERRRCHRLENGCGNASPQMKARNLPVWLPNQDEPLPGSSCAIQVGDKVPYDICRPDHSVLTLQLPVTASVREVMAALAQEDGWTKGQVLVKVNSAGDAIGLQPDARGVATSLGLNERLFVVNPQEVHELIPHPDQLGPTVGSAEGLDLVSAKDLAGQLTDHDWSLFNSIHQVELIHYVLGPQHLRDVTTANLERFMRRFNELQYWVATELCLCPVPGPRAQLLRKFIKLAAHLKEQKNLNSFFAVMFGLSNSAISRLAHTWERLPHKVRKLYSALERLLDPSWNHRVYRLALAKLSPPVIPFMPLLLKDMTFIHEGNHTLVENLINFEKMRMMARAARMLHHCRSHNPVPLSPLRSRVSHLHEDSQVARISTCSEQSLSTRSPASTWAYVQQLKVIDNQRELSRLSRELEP
Further: nearly all actives have a fitted effect of over 50% in size.
Potency means the concentration at half of the fitted maximal effect; tags describe the fitted curve by direction and shape.
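Wherever activity change, negative = inhibition is given: plate controls were vehicle for no effect and positive control for full effect.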

Potency, inconclusive:
O=C(O)Cc1ccc(N=Nc2c(O)c(C(=O)O)cc3ccccc23)cc1 50.1 µM [inhibitor, partial curve]
CCc1ccc(N=C2NC(=O)/C(=C/c3cc(Br)c(OCC(=O)O)c(OC)c3)S2)cc1 22.4 µM [inhibitor, partial curve]
O=C(Nc1ccc2oc(-c3ccccc3)nc2c1)c1cccs1 39.8 µM [inhibitor, single point]
CC(NC(=O)C1CCC(=O)N1Cc1ccc(F)cc1)c1ccc2c(c1)OCCO2 (configuration not stated) 89.1 µM [inhibitor, single point]
COc1ccc(C(=O)Nc2ccc(-c3n[nH]c(=S)o3)cc2)cc1 100 µM [inhibitor, single point]
N/C(=N/O)c1ccccc1N1CCC(Cc2ccccc2)CC1 89.1 µM [inhibitor, single point]
COc1ccccc1CNC(=S)NC1CCCCC1 2.82 µM [inhibitor, full curve, poor fit]
Cc1cccc(N2CCN(C(=O)c3ccc(CS(=O)Cc4cccc(Cl)c4)o3)CC2)c1C (configuration not stated) 3.55 µM [inhibitor, full curve, poor fit]
O=C(/C=C/c1ccccc1)c1ccc2c(c1)OCO2 56.2 µM [inhibitor, partial curve]
Cc1cc(C)c2nc(SC(C)C(=O)NCC(=O)Nc3ccc(F)c(F)c3F)cc(C)c2c1 (configuration not stated) 3.16 µM [inhibitor, full curve, poor fit]
O=[N+]([O-])c1ccc(Cl)c2c1C1C=CCC1C(c1ccccn1)N2 (configuration not stated) 44.7 µM [inhibitor, partial curve]
CC(C)c1nnc(NC(=O)C2CCN(C(=O)c3ccco3)CC2)s1 17.8 µM [inhibitor, full curve, poor fit]
O=[N+]([O-])c1cc(/C=N/n2c(-c3cccnc3)n[nH]c2=S)ccc1Cl 79.4 µM [inhibitor, single point]
CCOC(=O)c1c(C)[nH]c(C)c1C(=O)CSc1nc2ccccc2c(=O)n1-c1ccc(F)cc1 10 µM [inhibitor, full curve, poor fit]
Nc1nnn(CC(=O)N/N=C/c2cn[nH]c2-c2ccccc2)n1 7.94 µM [inhibitor, full curve]
C[C@@H]1COC(=O)[C@H](NC(=O)OCC2c3ccccc3-c3ccccc32)C/C=C\C[C@@H](CC(=O)N[C@H](CO)Cc2ccccc2)C(=O)N1 39.8 µM [inhibitor, full curve, poor fit]
COc1ccc(OCCC(=O)OCC(=O)Nc2ccc(S(=O)(=O)N3CCOCC3)cc2)cc1 8.91 µM [inhibitor, full curve, poor fit]
CSc1ccc(/C=C/C(=O)c2ccc(O)cc2)cc1 3.16 µM [inhibitor, full curve]
O=C(NCc1ccccc1)/C(=C\c1ccccc1)NC(=O)c1ccco1 3.55 µM [inhibitor, full curve, poor fit]
CN(C)S(=O)(=O)c1cccc(NC(=S)NNC(=O)c2cc3ccccc3cc2O)c1 89.1 µM [inhibitor, single point]
Cc1cccc(NC(=O)CSc2nc(NS(=O)(=O)c3ccccc3)cc(=O)[nH]2)c1 50.1 µM [inhibitor, partial curve]
Cc1ccc([C@H]2C[C@@H](O)[C@H](n3cc(-c4ccc(F)cc4)nn3)CN2Cc2cccs2)cc1 89.1 µM [inhibitor, single point]
NCCCC[C@H]1CNC(=S)N1CCc1cc(C(F)(F)F)cc(C(F)(F)F)c1 89.1 µM [inhibitor, single point]
CC(C)(C)c1cc(C(=O)NNc2cc(C(F)(F)F)ccc2Cl)n(Cc2ccccc2)n1 50.1 µM [inhibitor, partial curve]
Cc1cccc2nc(CSc3ccc(Cl)cc3)cn12 100 µM [inhibitor, single point]
COC(CNC(=O)c1ccc2c3c(onc13)-c1ccccc1C2=O)OC 50.1 µM [inhibitor, partial curve]
Cc1cccc(C(=O)NCCC(=O)Nc2ccc(C)c(F)c2)c1 39.8 µM [inhibitor, single point]

Potency, active:
O=C(O)c1ccccc1NS(=O)(=O)c1ccc(N/N=C/c2cccc(O)c2O)c([N+](=O)[O-])c1 25.1 µM

Activity change, negative = inhibition, inactive:
COc1cccc(/C=C/c2[nH]c(=O)[nH]c(=O)c2[N+](=O)[O-])c1O -2.31%
O=C(CCl)N1c2ccccc2OCC1c1ccccc1 (configuration not stated) -1.39%
COC(=O)c1ccc2c(c1)C(=O)/C(=C/c1ccc(C)cc1)O2 2.65%
Nc1c(C(=O)Nc2ccc3c(c2)OCCO3)nnn1Cc1ccccc1Cl -17.1%
C#Cc1ccc([C@@H]2C=C(C(=O)Nc3ccccc3)O[C@H](OCC)[C@H]2CCCO)cc1 -23.2%
CCN(CC(=O)Nc1ccccc1C(F)(F)F)C(=O)c1cc(-c2cccs2)nn1-c1ccccc1 -17.3%
N#Cc1ccc(CN2C=NS(=O)(=O)c3ccccc32)cc1 23.3%
CN(C)CCOCCP(=O)(c1ccccc1)c1ccccc1 4.07%
CC(=O)Nc1cccc(OCc2ccc([N+](=O)[O-])cc2)c1 -0.21%
c1ccc(-c2ccc(-c3csnn3)cc2)cc1 -5.69%
COc1ccc(C)cc1NC(=O)NC(C)c1ccc2c(c1)OCO2 (configuration not stated) -2.5%
O=S(=O)(NCCCCCNS(=O)(=O)c1ccccc1)c1ccccc1 2.61%

Activity change, negative = inhibition, inconclusive:
Cc1cc(-c2ccc(C)c(S(=O)(=O)N3CCN(c4ccccn4)CC3)c2)on1 -7.04% [inhibitor]
Cc1ccc2nc(NC(=O)C3CCN(S(=O)(=O)c4cnc[nH]4)CC3)sc2c1 -30.5% [inhibitor]
